Assay results taken from the supplement of paper PMC4967469.
A lower IC50 marks a more sensitive line; where the fit passes the top or lowest dose, that dose stands as a limit. AUC is the area under the same curve over the 256-fold range up to the top dose, as a fraction; values near 1 show little effect. A top dose marked as inferred was calculated from the reported fits. For some assays here: An entry number marks a drug with two screens in the source, which often give different values.

Legend:
Assay in all cases: Viability of human cancer cell lines after 72 h of drug (GDSC screen)
GSK269962A = compound: CCn1c(-c2nonc2N)nc2cnc(Oc3cccc(NC(=O)c4ccc(OCCN5CCOCC5)cc4)c3)cc21 [GSK269962A]; conditions: top dose inferred
Description: (§1)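 Human cancer cell lines in 384-well plates, medium with 10% serum, drug for 72 h over a 256-fold dose range (nine 2-fold or five 4-fold steps up to the top dose). Adherent lines were fixed and stained with the nucleic acid dye Syto60, suspension lines read with resazurin; signal relative to control wells, capped at 0 and 100%. One two-parameter sigmoid per drug and line, fitted in a mixed model over all curves with the slope shared within a line.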

Thapsigargin = compound: C/C=C(/C)C(=O)O[C@H]1C(C)=C2[C@H]([C@@H]1OC(=O)CCCCCCC)[C@@](C)(OC(C)=O)C[C@H](OC(=O)CCC)[C@@]1(O)[C@H]2OC(=O)[C@@]1(C)O [Thapsigargin]; conditions: top dose 0.512 µM; top dose inferred
Description: as §1

(5Z)-7-Oxozeaenol = compound: COc1cc(O)c2c(c1)/C=C/C[C@H](O)[C@H](O)C(=O)/C=C\C[C@H](C)OC2=O [(5Z)-7-Oxozeaenol]; conditions: top dose 10 µM; top dose inferred
Description: as §1

MPS-1-IN-1 = compound: COc1cc(N2CCC(O)CC2)ccc1Nc1cc(Nc2ccccc2S(=O)(=O)C(C)C)c2cc[nH]c2n1 [MPS-1-IN-1]; conditions: top dose 20 µM; top dose inferred
Description: as §1

CP466722 = compound: COc1cc2ncnc(-n3nc(-c4ccccn4)nc3N)c2cc1OC [CP466722]; conditions: top dose 16 µM; top dose inferred
Description: as §1

Zibotentan = compound: COc1nc(C)cnc1NS(=O)(=O)c1cccnc1-c1ccc(-c2nnco2)cc1 [Zibotentan]; conditions: top dose 20 µM; top dose inferred
Description: as §1

QL-X-138 = compound: C=CC(=O)Nc1cc(-n2c(=O)ccc3cnc4ccc(-c5cn[nH]c5)cc4c32)ccc1C [QL-X-138]; conditions: top dose 10.24 µM; top dose inferred
Description: as §1

ABT-869 = compound: Cc1ccc(F)c(NC(=O)Nc2ccc(-c3cccc4[nH]nc(N)c34)cc2)c1 [ABT-869]; conditions: top dose 1.024 µM; top dose inferred
Description: as §1

CHIR-99021 = compound: Cc1cnc(-c2cnc(NCCNc3ccc(C#N)cn3)nc2-c2ccc(Cl)cc2Cl)[nH]1 [CHIR-99021]
Description: as §1

[1] = top dose 5 µM, screen: GDSC drug entry 1192
[2] = top dose 2.56 µM, screen: GDSC drug entry 154
[3] = top dose 10 µM, screen: GDSC drug entry 1241, top dose inferred
[4] = top dose 2.5 µM, screen: GDSC drug entry 127

| Cell Line | AUC (GSK269962A; [1]) | IC50 (GSK269962A; [1]) | AUC (Thapsigargin) | IC50 (Thapsigargin) | AUC ((5Z)-7-Oxozeaenol) | IC50 ((5Z)-7-Oxozeaenol) | AUC (MPS-1-IN-1) | IC50 (MPS-1-IN-1) | AUC (CP466722) | IC50 (CP466722) | AUC (Zibotentan) | IC50 (Zibotentan) | AUC (QL-X-138) | IC50 (QL-X-138) | AUC (ABT-869) | IC50 (ABT-869) | AUC (CHIR-99021; [2]) | IC50 (CHIR-99021; [2]) | AUC (CHIR-99021; [3]) | IC50 (CHIR-99021; [3]) | AUC (GSK269962A; [4]) | IC50 (GSK269962A; [4]) |
| --- | --- | --- | --- | --- | --- | --- | --- | --- | --- | --- | --- | --- | --- | --- | --- | --- | --- | --- | --- | --- | --- | --- |
| COLO-792 (melanoma, adherent) | 0.73 | 1.39 µM | 0.619 | 0.0676 µM | 0.662 | 1.75 µM | 0.975 | > 20 µM | 0.731 | 4.5 µM | 0.988 | > 20 µM | 0.661 | 1.78 µM | 0.982 | > 1.02 µM | 0.968 | > 2.56 µM | 0.944 | > 10 µM |  |  |
| COR-L32 (small cell lung carcinoma, suspension) | 0.879 | > 5 µM |  |  | 0.839 | > 10 µM |  |  |  |  |  |  |  |  |  |  |  |  | 0.954 | > 10 µM |  |  |
| COR-L105 (lung adenocarcinoma, adherent) | 0.877 | > 5 µM | 0.322 | 0.00909 µM | 0.706 | 2.75 µM | 0.824 | 15.6 µM | 0.715 | 4.7 µM | 0.976 | > 20 µM | 0.581 | 1.12 µM | 0.982 | > 1.02 µM | 0.944 | > 2.56 µM | 0.966 | > 10 µM |  |  |
| COR-L303 (small cell lung carcinoma, suspension) |  |  |  |  |  |  | 0.795 | 8.96 µM | 0.802 | 7.53 µM | 0.987 | > 20 µM | 0.695 | 2.21 µM | 0.978 | > 1.02 µM |  |  |  |  |  |  |
| COR-L311 (small cell lung carcinoma, suspension) |  |  |  |  |  |  | 0.828 | 13.5 µM | 0.639 | 2.49 µM | 0.983 | > 20 µM | 0.186 | 0.0672 µM | 0.961 | > 1.02 µM |  |  |  |  |  |  |
| Caov-3 (ovary, adherent) |  |  | 0.564 | 0.0469 µM |  |  | 0.909 | > 20 µM | 0.789 | 6.14 µM | 0.991 | > 20 µM | 0.743 | 2.85 µM | 0.989 | > 1.02 µM | 0.986 | > 2.56 µM |  |  |  |  |
| ECC12 (stomach, suspension) |  |  |  |  |  |  |  |  |  |  |  |  |  |  |  |  | 0.979 | > 2.56 µM |  |  | 0.969 | > 2.5 µM |
| GCT (soft tissue, adherent) | 0.368 | 0.139 µM | 0.214 | 0.00499 µM | 0.5 | 0.624 µM | 0.987 | > 20 µM | 0.954 | > 16 µM | 0.989 | > 20 µM | 0.972 | > 10.2 µM | 0.987 | > 1.02 µM | 0.63 | 0.355 µM | 0.928 | > 10 µM |  |  |
